# According to article PMC12136788:
# This is one part of the list.
# T1: UNK ZnF1-3 (human, UniProt Q9C0B0 31-174)
# T1 sequence: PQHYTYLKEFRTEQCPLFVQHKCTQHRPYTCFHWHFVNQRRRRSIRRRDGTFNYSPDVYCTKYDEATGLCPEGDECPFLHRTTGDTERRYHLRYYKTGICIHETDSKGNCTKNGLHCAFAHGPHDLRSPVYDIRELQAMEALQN
# B1: 80640421_80640541_171_3pUTR_ENSMUSG00000034994_ENSMUST00000047864|mouse|control|control (ssRNA)
# RNA: GGGAGUUCUACAGUCCGACGAUCGAUGCCAGCCUUGCACACAAGGGAGUCGGUCAGCGUGGACUUGCCGUGGUCCACAUGGGCGAUGACUGACAUGUUCCGGAUGUUGGCUUUCUUGUCCAUGAUGGCACGGAUCUGAUCUACCAACAGAGGAUUGAGCAUCA
# B2: chr6:150114741:150114742:+_ENSG00000120265_ENST00000367380|hu_mus|motif|central (ssRNA)
# RNA: GGGAGUUCUACAGUCCGACGAUCCCCCGAGGACAGGAGCAUUGGGUCAUCCUUUUUGACAUUAGUUAUUGAGUCAUCGGCGGGUUCUUUAAUGUGAUCAAUUCCAAUGACUUUUCCACUAUUUCCAACCAUCCGUGCAAAACACAACAGAGGAUUGAGCAUCA
# B3: 36950683_36950803_2544_CDS_ENSMUSG00000024811_ENSMUST00000025729|mouse|control|control (ssRNA)
# RNA: GGGAGUUCUACAGUCCGACGAUCGGCCAACAAUAAAGCACAAAGCUGUGUCCGUCCCUUUUGGGCUGCUUCAUGUAACGGUGUGAAAGCCCAUUUGUCCGUGGCAUUGACACACGCAUUGUACUUUAUCAGCAAAGCUGCUACCAACAGAGGAUUGAGCAUCA
# B4: chr2:187541933:187541934:+_ENSG00000138448_ENST00000261023|hu_hu|motif|central (ssRNA)
# RNA: GGGAGUUCUACAGUCCGACGAUCAAAAAAGCCCAUCCUGUACAUUACAAAUACCAAAACAGCCAGUAGCAACAAUCCUGCGGGAACUGCUAAAAUGAUCACCCACACAGGCACAGGCAUGGGCGCUGGCUGAAUGCCCCAGGUCAACAGAGGAUUGAGCAUCA
# B5: chr16:94651144:94651145:+_ENSMUSG00000040785_ENSMUST00000117648|mus_hu|mus_mus_mus_hu_True|28_48 (ssRNA)
# RNA: GGGAGUUCUACAGUCCGACGAUCAUUUUCUUGAAUCAAGUGGCGAAUAACAUAGUCCACUGCUUCAUUUAGAAAAUUUCUGCUAGAAAAGCAUGUUGUAUAGUCUUCCGUGCUCAGAACUUUCCAAGAAAGCAAUUCUUUGAGCAACAGAGGAUUGAGCAUCA
# B6: chr3:90056536:90056537:+_ENSMUSG00000052310_ENSMUST00000015467|mus_hu|motif|central (ssRNA)
# RNA: GGGAGUUCUACAGUCCGACGAUCUCCUUAUGUAUAGUGUCCAACCUCUGAUUCUAGCAGUCAAGUGUCUUCCCCAAUCCGGAUGUCCCCUGAUAUGUCUCUAGCGACUUGACCAUCUCUUGUUCCUUGGGACUGGGGCCAGCCCAACAGAGGAUUGAGCAUCA
# B7: chr7:56126341:56126342:+_ENSG00000146731_ENST00000540286|hu_mus|hu_hu_hu_mus_True|88_88 (ssRNA)
# RNA: GGGAGUUCUACAGUCCGACGAUCCAUGUUUCUCCUCUUGGCUCUGCGCAGAGCAACGAUCCCUUCUUUCGCAAGGGCAUCUAAGGAAAAGGGGUCAAUCCCCUUUUGAUUAAUAACGACAAAUCCUUUAUCUGAGUCACCACACAACAGAGGAUUGAGCAUCA
# B8: 71365727_71368379_1618_CDS_ENSG00000124383_ENST00000244230|human|control|control (ssRNA)
# RNA: GGGAGUUCUACAGUCCGACGAUCUACUACAUCAUCCCAAGCCUGAUCUCUUAUCCUCUGUUUAAUGAUAUCUUCCAGUUGAAGGGUGGUUUCCUCUGUAAUCACAGGUGCCAUCCGGACAGCAUGGUCAAAGUGUAGGGUCUCCAACAGAGGAUUGAGCAUCA
# B9: chr3:139075817:139075818:+_ENSG00000175110_ENST00000310776|hu_hu|FALSE|FALSE (ssRNA)
# RNA: GGGAGUUCUACAGUCCGACGAUCUUAGGAAGCUGCAGAAUGGCGACUGAGUGCUUCUUGAUAAGUCUGCAGUGUUAGUUCUAUAUAGGCUCCCUUCUGUGCUUCUGUUUUUGCAAAGACCUUGAUUAAAUUUAUUCCCUCAGCCAACAGAGGAUUGAGCAUCA
# B10: chr13:40293908:40293909:+_ENSG00000133103_ENST00000455146|hu_hu|motif|central (ssRNA)
# RNA: GGGAGUUCUACAGUCCGACGAUCUGCUUCGAUCUGAAACUGUAGCAUUUCCAGACGUCUGUCAGUGAAUUCAAAUAGAGCGGAUGUUGUCUUCAUCAUAUAUAGUGAAUUGACCAUGAAAGUGGCCAUGUCAGCUGUGCCUAACAACAGAGGAUUGAGCAUCA
# B11: chr7:90019433:90019434:+_ENSMUSG00000057706_ENSMUST00000082237|mus_hu|mus_mus_mus_hu_True|88_108 (ssRNA)
# RNA: GGGAGUUCUACAGUCCGACGAUCAAAAAUACAGUGUUUCUUUGCCAAAGGCCAUACCUAAAAUAAAAAGAUUUAACCCAGCUACAAAAAAGUUCACUGAACUUAAAUUAAAAUACUUGUAAACAUCUUUGCAAUAUGAAAUAUCAACAGAGGAUUGAGCAUCA
# B12: chr16:37883567:37883568:+_ENSMUSG00000034158_ENSMUST00000078717|mus_mus|motif|central (ssRNA)
# RNA: GGGAGUUCUACAGUCCGACGAUCUCGAUCCACACAGAGUACUUGCGCUCAGGAGGAGCAAUGAUCUUGAUCUUCAUGGUGCGGGGAGCCAGAGCAGUAAUCUCCUUCUGCAUCCUGUCAGCAAUGCCUGGGUACAUGGUGGUACAACAGAGGAUUGAGCAUCA
# B13: chr1:225611761:225611762:-_ENSG00000143815_ENST00000272163|hu_mus|hu_hu_hu_mus_True|48_98 (ssRNA)
# RNA: GGGAGUUCUACAGUCCGACGAUCCCAGGCCAUCGGCCUCUUACCACUUCACCCUCAACAAACUUCCUACUUGGCAUUUUCUAAAAUUAACCUGCGCGCGCUCCGGCGGGAACUCCAGCCACUCCAGGACAGUCACCAGCAGCCCAACAGAGGAUUGAGCAUCA
# B14: chr18:35108781:35108782:-_ENSMUSG00000024359_ENSMUST00000025217|mus_mus|FALSE|FALSE (ssRNA)
# RNA: GGGAGUUCUACAGUCCGACGAUCGAGUUUUCCAUGAGCCUCAACCCAAGCAUCACCAUUGGAGGCACGGACAAUUUUAAAAGGAACAUUCUUAGUGUCUUUCUGUACUUCAGGGUCAUCAUAUCGUCGUCCAAUAAGACGCUUCAACAGAGGAUUGAGCAUCA
# B15: chr19:41288738:41288739:-_ENSMUSG00000025016_ENSMUST00000025989|mus_hu|FALSE|FALSE (ssRNA)
# RNA: GGGAGUUCUACAGUCCGACGAUCAACUUGGGGGGAAAAAAGAUAAUCACUUUAGACAUUCAGUUAAAAUGUAGUUUAUCUAAAUCUCAAAAUGUUUAAUAAAAACAAGUAUCUUCUCCAUUUAACACUUUGCUUUCUAACUGUCAACAGAGGAUUGAGCAUCA
# B16: chr4:48853911:48853912:+_ENSG00000109180_ENST00000264312|hu_hu|FALSE|FALSE (ssRNA)
# RNA: GGGAGUUCUACAGUCCGACGAUCAGCAGAUUCAUUCAUAGAAGAACUGAAUGGAAUUGGCUCAUAAUGAGGAAGCAUUUCUAUGUUGUCUGCUGCUGGGGAUGUCACAAAAGAUGAUUGACCACUCACACUUGAGUCAUAUUUCAACAGAGGAUUGAGCAUCA
# B17: chr10:85910540:85910541:+_ENSG00000165678_ENST00000372134|perfect_dup|motif|central (ssRNA)
# RNA: GGGAGUUCUACAGUCCGACGAUCUUCUGCACGCUUGAUUACUUUCUGGGUAUCAUACAGAAGGAACAUGCUGAAAAGAACGGAUCCACCGUACAUUGCCACUGAGUAAAGAGUGGCACCAGCCACGGUGGUAGGUGGAAGAAACAACAGAGGAUUGAGCAUCA
# B18: chr16:94664741:94664742:+_ENSMUSG00000040785_ENSMUST00000117648|mus_hu|mus_mus_mus_hu_False|18_108 (ssRNA)
# RNA: GGGAGUUCUACAGUCCGACGAUCUGGCAUGGAUCUUGGUAGCUGAUAUUCAGGAGAAAGGCUGGCCAAGGGUGUAUAUAUGCUGGUGUACUGGGGCAAACCUGGUAACACGUUUAUGUACGCUGGUGGUGUCUGGGUGAUAUCCAACAGAGGAUUGAGCAUCA
# B19: chr11:110355629:110355630:+_ENSMUSG00000020623_ENSMUST00000020949|mus_mus|FALSE|FALSE (ssRNA)
# RNA: GGGAGUUCUACAGUCCGACGAUCAUGGAUAACAGACAGCUUACUGUGUAAAUGUUCUAACGCUUUUACAAUAGAAACUGCUAUCUUUCCUAAGAUAUCCUCUGGAAUUGUUUGGCCUUUAUCAAUAACUUGUUUGUAGAAUUUCAACAGAGGAUUGAGCAUCA
# B20: chr18:52893488:52893489:-_ENSG00000196628_ENST00000354452|hu_hu|hu_hu_hu_mus_True|8_98 (ssRNA)
# RNA: GGGAGUUCUACAGUCCGACGAUCUAUUUAGACCAUUUCAAUGGAUUUAUGGCAUUUACUCAGUGCUGAUAGGUGGAAAAACUACUUCAACAGGGAUUUUUUUUUUCCUUAAUACAUGCCAAGAUUGGUGUGGCUGUAAAACAGCAACAGAGGAUUGAGCAUCA
# B21: chr11:116106860:116106861:-_ENSMUSG00000020780_ENSMUST00000021133|mus_hu|FALSE|FALSE (ssRNA)
# RNA: GGGAGUUCUACAGUCCGACGAUCAUGACCCUGCACACAUUUACCAGAAGACAACAGGGUGCUCUCCUGACACGCUGCUUAAGAACGUGUACAGACACAAGAUGUAGGAAUGCAGGGCCGAAGAUGUUAAACUCUUGCCCCGGGCAACAGAGGAUUGAGCAUCA
# B22: chr1:212142006:212142007:-_ENSG00000143493_ENST00000366992|hu_mus|FALSE|FALSE (ssRNA)
# RNA: GGGAGUUCUACAGUCCGACGAUCGAGAUCGAUCCGGAGCUUUACAAACUCACACUGAAAGCUCAAAGGAUUCAGCGGUGUGCUGGCGGCCGUUAGGGAGGCGAUCCCUUUGUGGUAGAACUUCAAAGACUCAGCAAUGCAGGACAACAGAGGAUUGAGCAUCA
# Target: T1, UNK ZnF1-3
# Assay: nsRBNS (natural sequence RNA bind-n-seq); RBNS binding buffer (assumed for nsRBNS): 25 mM Tris pH 7.5, 150 mM KCl, 3 mM MgCl2, 0.01% Triton X-100, 500 ug/ml BSA, 20 U/ml SUPERase-In, 4 C; UNK is unkempt and MSI1 is Musashi-1; names of the RNAs are library labels; protein concentration not given here; high values mean tight binding
row,Binder,binding signal
1,B1,0.625 enrichment R
2,B2,0.934 enrichment R
3,B3,0.378 enrichment R
4,B4,1.21 enrichment R
5,B5,0.485 enrichment R
6,B6,0.659 enrichment R
7,B7,1.06 enrichment R
8,B8,0.629 enrichment R
9,B9,0.865 enrichment R
10,B10,0.981 enrichment R
11,B11,1.75 enrichment R
12,B12,1.17 enrichment R
13,B13,1.62 enrichment R
14,B14,1.03 enrichment R
15,B15,0.808 enrichment R
16,B16,2.5 enrichment R
17,B17,1.57 enrichment R
18,B18,0.942 enrichment R
19,B19,0.566 enrichment R
20,B20,0.945 enrichment R
21,B21,1.02 enrichment R
22,B22,1.18 enrichment R
